In the supplement of paper PMC10126150:
Values marked as one replicate rest on one cluster of the flow cell; about a third of the high ones do not repeat.

Test system: ATP
Assay: switch fluorescence ratio, 500 uM ATP over buffer (Cy3 cluster intensity, sum of 5 cycles each) (fold (ratio)); higher = stronger signal-on switching upon ATP binding; sequences stand for … in TCGTCGGCAGCGTCAGATGTGTATAAGAGACAGTTTTTTTTTTTTTTTTTTTTTTTTT…TC
Conditions: aptamer strand: ATP DNA aptamer (quencher-CACCTGGGGGAGTATTGCGGAGGAAGG + anchor), 100 nM annealed; ATP concentration: 500 uM; one replicate
In short: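 Imaging in selection buffer was followed by imaging after 15 min with 500 uM ATP at 22 °C, for Cy3-labelled switching-strand clusters annealed to 100 nM quencher-labelled ATP aptamer on a modified Illumina MiSeq flow-cell. Five of these buffer/ATP cycles ran, separated by NaOH stripping and re-annealing. The fluorescence ratio per cluster is summed target-cycle over summed buffer-cycle Cy3 intensity, averaged per switch-domain sequence; clusters outside 100-1000 RFU were removed.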
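Also: ATP exposure 15 min at 22 °C before imaging.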

Sequence	switch fluorescence ratio
AACAGTTCGG	0.974
TTTGATTAGT	1.01
CCGTCGCCTG	0.987
TTCGGTATCG	1.03
AATTTGGCTC	0.945
ACTGCATCT	1.11
AAGCGGGCGA	1.07
GTCTTCCATA	0.963
ACGTTCTATT	1.01
TATCACCCTT	1.02
TCTCACTTAC	1.75
GACTTTTGTG	1.01
ACTATTTGCC	1.04
TGGCCAATTA	1.06
TTGAGAGACT	0.984
CGTTCACCG	1
ATGGATGATA	0.98
TGCGACCATA	1.11
GTGGTTTGAT	1.01
CCCTAGCCTG	1
AGGGAACCG	1.13
CGCCGTTAGG	0.981
TGGCGCTAGG	0.968
TCGTTACTG	0.892
ATCTCTGTTA	0.964
GCATGGAGTG	1.01

Sequence	switch fluorescence ratio
TGACTGGTCG	0.974
TGCTGGATAC	1.19
AGACGGTAGA	1
GTGTGCGAGG	0.968
CGGGTTCATT	0.969
GTCGCACCTA	1.04
GATACAGCAA	1.96
GCTAACTTCC	2.55
ATGTCGTTG	0.97
AAAGCAATCT	1.87
ACAGGTTTCG	1.02
GGCCTGACGA	1.81
CTTGTACTCT	1
AACTGAGGTA	0.999
CGAAACGGAG	1.03
CATATGATCA	1.03
AGAACTGAAA	1.15
GATATCATGC	0.985
CCATATGGGC	0.981
AGGGATCTT	1.03
TGCCAAGTTA	0.975
CGGGGTTGTA	0.959
TGGACTTAGC	0.988
CTCCTGGTCT	1.07
AAAGACGGTC	1.01
GAGAATCCTC	1.02

Sequence	switch fluorescence ratio
GTGACGGCCG	1.07
GTAACGTTTG	0.997
CTTAGTTAAT	0.986
CTGCAACTTG	1.17
TCTTTAATGT	0.997
CCATCATATA	0.984
GTCGGGACAG	1.01
CTGGGTCCAG	0.964
CGTGGTACCC	1.02
CCATAACAGT	0.988
AAATCATAAC	1.01
TTCGATGGTT	0.988
TTGTTCTCAC	0.983
GTTCCTGTTT	1.03
AAAGTTCGGA	0.983
ATGAGCAGG	1.18
AGTCTGCTAT	1.06
TAAGGCGTCA	1.03
CTAATGATC	1.01
CAAACGATAG	0.948
CGTAGCGCAG	1.02
GATTCTAGTG	1.04
TGAGTTGGTA	0.966
TTTATTAAA	1.05
GTTACGGTTA	1.05
AGAGTTCAGC	0.956

Sequence	switch fluorescence ratio
CGGTATGCGT	1.04
GGGCTCGTTC	0.972
GGGACCCGCA	1.19
TCACAAAGC	1.04
CCCCTTCCTA	1.57
AGGCGTAGAA	1.04
CCAAACCTTT	1.25
GTATGTCTAC	1.01
GCTGCTATTT	1.01
TAGATTCGG	0.949
CGTGTGGCCT	1.02
CGAGGGCGCT	0.938
AGCGACGTAG	1.02
GAAGGGGAC	1.01
AATATAGGTC	1.03
AAAGATTAC	1.02
GCAACTCAGT	1
AATAGAATCG	0.966
TAGGGAGCCC	0.989
AGATATATTA	1.02
GGTTTTCGGT	0.991
TGATATTGGG	0.995
TTTACGGTTT	1
AAAAACTACT	1.09
CCTGACAGTT	1.03
TACTTTTGGG	0.988

Sequence	switch fluorescence ratio
AGGAAAAGAT	0.987
TCTTGGTATG	0.995
CCGCTCTCAG	1.68
CTTATAACGT	1.03
GTTCTGGCAT	1.05
TCAAACATAA	0.979
GAGTGACAGT	0.981
CTAGGGCCAG	0.97
CGCCGATGCG	1.06
CTAATAGAGA	0.962
TCGTGAGTGC	1.07
AGACGTAATT	1.08
TCTCGTATCT	0.941
TTATTGCTGC	1.01
CGTGCAATCG	1.2
TGGATTGGT	0.989
GGTAGGGACT	0.97
AAAAGGCCTA	0.996
TAACGAAAAT	0.978
ACGTCTGATA	1.01
GTGCGAGCGT	0.973
ATCGTTCTAA	1.02
GGCTGGCCCG	0.973
ATGATTCTCT	1.02
CCGGTTATGT	1.19
CCGACAAAAC	3.95

Sequence	switch fluorescence ratio
CGTCAAGTTG	0.987
TTAAAGGAAC	0.983
TCAAGGGCTA	1.01
GGTATCAAAG	1.01
GGTTTGCCGC	1.08
TTATAGATTC	0.964
CGACACTAG	1.04
TATCATCCGT	1.11
AAGGAGATGG	1.02
AGCCTATGTG	1.02
ATTCGATCTG	1.05
AAACGACGCT	1.65
ATAGTTGGAA	1.03
GGTGACGGTG	0.967
GGATGCGGCG	1.1
TCATGCGACA	1.09
AAGGATGATT	1.01
CGTAAATCAA	0.987
ACCTGGAGG	1.04
GGGCTATAGT	1.02
TATGCCCGCA	1.05
CATACTCGTA	0.983
ACTCACGGG	1.39
GGTAGCCTCA	0.947
TAGGGCAATG	1.05
GCAAGTTT	1.02

Sequence	switch fluorescence ratio
GCGATAATCA	1.16
ATCTAGGAAC	0.988
CGTTCGATTA	0.994
GCTATAACG	1.07
TGCGACGGGC	1.15
AGTATCGAA	0.981
TTATAACCCC	1.1
TATAAATCTT	1.02
ACGATCGCGT	0.923
GAAACAGGGG	1.07
GGACGAGAAA	1.07
GCGTCAGGAA	1
GGCAGGCCTG	0.995
ATATGCGCTA	1.06
TGATTTGCCT	1.01
ACATCATGTA	0.957
TCCCCTTTTC	1.13
AGCAGGTGCT	1.16
ACGCACGCGC	1.24
TTAAAAGTG	0.967
GCACTGCATA	1.07
TTGATATAGG	1.02
TCGCGTGC	1.22
GAAATAGAAT	0.94
CAAAGACTAA	0.965
TCGTACGCGG	0.968

Sequence	switch fluorescence ratio
GGAGGAGCGT	1
TAATTTGCCG	1.21
CGGCTTAGTG	1.03
CGCGGCCACG	1.04
GATCTGATCC	0.971
ACACCTCACC	1.47
ACAACTTGTG	0.958
AAAAGGAACG	1.04
CTACCGTGG	0.99
ACAGTGAGTT	0.994
ACGGTGATTG	1.04
GATGGTGGCG	0.924
AACTACTTAT	1.88
GGCTGGAATT	0.943
GGATATGTGA	0.965
TGCGTATATA	0.995
TGTTTTGCC	1.01
GGTTAGAAGC	1.01
AGGCGTGTCG	1.03
